Results are given in words; binding and its absence hold for the method and conditions named. In cells and extracts the contact can be indirect. Some results given as binding are weak or reduced against the parent protein; the word gives no strength. Sequences can lack the tags named with a protein.
Legend:
[1] = biological target: T1, Flag-NBD of SMC3 (Nde1 binding domain of Smc3) (UniProt Q9CW03); experiment: co-IP; Flag-NBD of SMC3 co-transfected with GFP-Nde1 in 293T, immunoprecipitated by the Flag antibody (mouse IgG as control), immunoblotting; 25 mM HEPES, 150 mM NaCl, 10 mM NaF, 100 uM Na3VO4, 0.5% NP40, 10% glycerol, protease inhibitors, 1 mM ATP
T1 sequence: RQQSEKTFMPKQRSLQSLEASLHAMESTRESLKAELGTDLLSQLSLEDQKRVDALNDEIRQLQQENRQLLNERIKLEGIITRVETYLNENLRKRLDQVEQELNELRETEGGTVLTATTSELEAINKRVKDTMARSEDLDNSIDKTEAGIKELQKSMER

By UniProt entry, the sequences of proteins in these tests, tags left out.
UniProt O60264: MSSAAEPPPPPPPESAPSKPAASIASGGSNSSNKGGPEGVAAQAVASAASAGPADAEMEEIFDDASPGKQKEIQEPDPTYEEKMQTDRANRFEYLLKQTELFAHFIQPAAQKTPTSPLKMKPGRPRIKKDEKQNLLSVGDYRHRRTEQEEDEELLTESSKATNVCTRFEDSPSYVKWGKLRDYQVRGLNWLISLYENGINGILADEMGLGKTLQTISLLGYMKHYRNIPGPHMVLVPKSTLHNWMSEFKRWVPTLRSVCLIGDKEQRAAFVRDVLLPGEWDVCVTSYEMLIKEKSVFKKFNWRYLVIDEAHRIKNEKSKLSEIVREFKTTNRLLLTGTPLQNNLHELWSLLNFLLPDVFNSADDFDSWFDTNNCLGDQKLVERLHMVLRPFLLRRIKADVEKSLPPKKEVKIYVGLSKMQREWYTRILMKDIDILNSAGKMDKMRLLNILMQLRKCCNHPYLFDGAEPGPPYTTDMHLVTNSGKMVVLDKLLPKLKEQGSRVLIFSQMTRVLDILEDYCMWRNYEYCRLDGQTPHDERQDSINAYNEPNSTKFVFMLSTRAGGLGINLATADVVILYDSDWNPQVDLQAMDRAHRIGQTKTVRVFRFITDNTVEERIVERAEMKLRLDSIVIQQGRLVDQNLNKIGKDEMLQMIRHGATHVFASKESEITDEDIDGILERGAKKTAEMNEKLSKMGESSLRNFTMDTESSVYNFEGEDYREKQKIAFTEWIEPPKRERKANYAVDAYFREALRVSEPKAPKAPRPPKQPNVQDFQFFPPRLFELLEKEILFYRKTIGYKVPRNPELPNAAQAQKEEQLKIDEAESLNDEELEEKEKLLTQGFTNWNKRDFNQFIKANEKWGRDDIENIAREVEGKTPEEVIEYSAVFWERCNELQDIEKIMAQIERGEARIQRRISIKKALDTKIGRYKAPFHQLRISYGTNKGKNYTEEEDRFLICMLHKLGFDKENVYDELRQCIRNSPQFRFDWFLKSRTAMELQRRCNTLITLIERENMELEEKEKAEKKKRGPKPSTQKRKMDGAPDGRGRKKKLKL

Myc-Nde1 (mouse) = biological target: T2, Myc-Nde1 (mouse) (UniProt Q9CZA6); experiment: co-IP; Myc-Nde1 transfected in 293T, immunoprecipitated by anti-myc 9E10 (mouse IgG as control), endogenous partners by immunoblotting; 25 mM HEPES, 150 mM NaCl, 10 mM NaF, 100 uM Na3VO4, 0.5% NP40, 10% glycerol, protease inhibitors, 1 mM ATP
T2 sequence: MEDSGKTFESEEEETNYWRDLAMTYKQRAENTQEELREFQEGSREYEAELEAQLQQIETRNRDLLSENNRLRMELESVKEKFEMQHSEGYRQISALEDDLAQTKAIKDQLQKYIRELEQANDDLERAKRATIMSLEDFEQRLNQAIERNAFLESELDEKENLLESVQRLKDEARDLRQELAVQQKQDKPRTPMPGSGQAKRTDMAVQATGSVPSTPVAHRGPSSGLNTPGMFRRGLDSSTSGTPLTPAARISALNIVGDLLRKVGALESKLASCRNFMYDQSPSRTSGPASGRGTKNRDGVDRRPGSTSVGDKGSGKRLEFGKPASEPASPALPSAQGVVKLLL

Substance	binding [1]	binding (Myc-Nde1 (mouse))
structural maintenance of chromosomes 3 (SMC3), endogenous (from UniProt Q9UQE7 1-1217)	no binding	binds
SNF2h, endogenous (from UniProt O60264 1-1052)		binds

Source: PMC4170211
